Test results: the supplement of paper PMC4967469

Assays:
PD-173074 = compound: CCN(CC)CCCCNc1ncc2cc(-c3cc(OC)cc(OC)c3)c(NC(=O)NC(C)(C)C)nc2n1 [PD-173074]; assay: Viability of human cancer cell lines after 72 h of drug (GDSC screen); conditions: top dose 2 µM; top dose inferred
Method: (§1)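 Human cancer cell lines in 384-well plates, medium with 10% serum, drug for 72 h over a 256-fold dose range (nine 2-fold or five 4-fold steps up to the top dose). Adherent lines were fixed and stained with the nucleic acid dye Syto60, suspension lines read with resazurin; signal relative to control wells, capped at 0 and 100%. One two-parameter sigmoid per drug and line, fitted in a mixed model over all curves with the slope shared within a line.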

SB590885 = compound: CN(C)CCOc1ccc(-c2nc(-c3ccncc3)c(-c3ccc4c(c3)CC/C4=N\O)[nH]2)cc1 [SB590885]; assay: as above; conditions: top dose 5 µM; top dose inferred
Method: as §1

NCI-H1437 (lung adenocarcinoma, adherent)
AUC (PD-173074): 0.986 | IC50 (PD-173074): > 2000 nM | AUC (SB590885): 0.986 | IC50 (SB590885): > 5 µM

NCI-H1563 (lung adenocarcinoma, adherent)
AUC (PD-173074): 0.98 | IC50 (PD-173074): > 2000 nM | AUC (SB590885): 0.985 | IC50 (SB590885): > 5 µM

NCI-H1568 (lung adenocarcinoma, adherent)
AUC (PD-173074): 0.98 | IC50 (PD-173074): > 2000 nM | AUC (SB590885): 0.981 | IC50 (SB590885): > 5 µM

NCI-H1623 (lung adenocarcinoma, adherent)
AUC (PD-173074): 0.985 | IC50 (PD-173074): > 2000 nM | AUC (SB590885): 0.985 | IC50 (SB590885): > 5 µM

NCI-H1651 (lung adenocarcinoma, adherent)
AUC (PD-173074): 0.986 | IC50 (PD-173074): > 2000 nM | AUC (SB590885): 0.987 | IC50 (SB590885): > 5 µM

NCI-H1688 (small cell lung carcinoma, adherent)
AUC (PD-173074): 0.98 | IC50 (PD-173074): > 2000 nM | AUC (SB590885): 0.987 | IC50 (SB590885): > 5 µM

NCI-H1693 (lung adenocarcinoma, adherent)
AUC (PD-173074): 0.945 | IC50 (PD-173074): > 2000 nM | AUC (SB590885): 0.953 | IC50 (SB590885): > 5 µM

NCI-H1703 (lung adenocarcinoma, adherent)
AUC (PD-173074): 0.981 | IC50 (PD-173074): > 2000 nM | AUC (SB590885): 0.982 | IC50 (SB590885): > 5 µM

NCI-H1755 (lung adenocarcinoma, adherent)
AUC (PD-173074): 0.968 | IC50 (PD-173074): > 2000 nM | AUC (SB590885): 0.975 | IC50 (SB590885): > 5 µM

NCI-H1781 (lung adenocarcinoma, adherent)
AUC (PD-173074): 0.989 | IC50 (PD-173074): > 2000 nM | AUC (SB590885): 0.989 | IC50 (SB590885): > 5 µM

NCI-H1792 (lung adenocarcinoma, adherent)
AUC (PD-173074): 0.99 | IC50 (PD-173074): > 2000 nM | AUC (SB590885): 0.99 | IC50 (SB590885): > 5 µM

NCI-H1944 (lung adenocarcinoma, adherent)
AUC (PD-173074): 0.985 | IC50 (PD-173074): > 2000 nM | AUC (SB590885): 0.985 | IC50 (SB590885): > 5 µM

NCI-H1993 (lung adenocarcinoma, adherent)
AUC (PD-173074): 0.969 | IC50 (PD-173074): > 2000 nM | AUC (SB590885): 0.983 | IC50 (SB590885): > 5 µM

NCI-H2009 (lung adenocarcinoma, adherent)
AUC (PD-173074): 0.986 | IC50 (PD-173074): > 2000 nM | AUC (SB590885): 0.986 | IC50 (SB590885): > 5 µM

NCI-H2023 (lung adenocarcinoma, adherent)
AUC (PD-173074): 0.98 | IC50 (PD-173074): > 2000 nM | AUC (SB590885): 0.976 | IC50 (SB590885): > 5 µM

NCI-H2030 (lung adenocarcinoma, adherent)
AUC (PD-173074): 0.955 | IC50 (PD-173074): > 2000 nM | AUC (SB590885): 0.951 | IC50 (SB590885): > 5 µM

NCI-H2052 (mesothelioma, adherent)
AUC (PD-173074): 0.983 | IC50 (PD-173074): > 2000 nM | AUC (SB590885): 0.983 | IC50 (SB590885): > 5 µM

NCI-H2066 (small cell lung carcinoma, adherent)
AUC (PD-173074): 0.98 | IC50 (PD-173074): > 2000 nM | AUC (SB590885): 0.98 | IC50 (SB590885): > 5 µM

NCI-H2085 (lung adenocarcinoma, adherent)
AUC (PD-173074): 0.968 | IC50 (PD-173074): > 2000 nM | AUC (SB590885): 0.977 | IC50 (SB590885): > 5 µM

NCI-H2087 (lung adenocarcinoma, semi-adherent)
AUC (PD-173074): 0.983 | IC50 (PD-173074): > 2000 nM | AUC (SB590885): 0.984 | IC50 (SB590885): > 5 µM

NCI-H2172 (non-small cell lung carcinoma, adherent)
AUC (PD-173074): 0.979 | IC50 (PD-173074): > 2000 nM | AUC (SB590885): 0.983 | IC50 (SB590885): > 5 µM

NCI-H2291 (lung adenocarcinoma, adherent)
AUC (PD-173074): 0.923 | IC50 (PD-173074): > 2000 nM | AUC (SB590885): 0.952 | IC50 (SB590885): > 5 µM

NCI-H2342 (lung adenocarcinoma, adherent)
AUC (PD-173074): 0.986 | IC50 (PD-173074): > 2000 nM | AUC (SB590885): 0.986 | IC50 (SB590885): > 5 µM

NCI-H2347 (lung adenocarcinoma, adherent)
AUC (PD-173074): 0.983 | IC50 (PD-173074): > 2000 nM | AUC (SB590885): 0.973 | IC50 (SB590885): > 5 µM

NCI-H2405 (lung adenocarcinoma, adherent)
AUC (PD-173074): 0.985 | IC50 (PD-173074): > 2000 nM | AUC (SB590885): 0.979 | IC50 (SB590885): > 5 µM

NCI-H2444 (non-small cell lung carcinoma, adherent)
AUC (PD-173074): 0.988 | IC50 (PD-173074): > 2000 nM | AUC (SB590885): 0.987 | IC50 (SB590885): > 5 µM

NCI-H2452 (mesothelioma, adherent)
AUC (PD-173074): 0.958 | IC50 (PD-173074): > 2000 nM | AUC (SB590885): 0.984 | IC50 (SB590885): > 5 µM

NCI-H3122 (lung adenocarcinoma, adherent)
AUC (PD-173074): 0.985 | IC50 (PD-173074): > 2000 nM | AUC (SB590885): 0.923 | IC50 (SB590885): > 5 µM

NCI-N87 (stomach, adherent)
AUC (PD-173074): 0.959 | IC50 (PD-173074): > 2000 nM | AUC (SB590885): 0.967 | IC50 (SB590885): > 5 µM

NUGC-3 (stomach, adherent)
AUC (PD-173074): 0.975 | IC50 (PD-173074): > 2000 nM | AUC (SB590885): 0.964 | IC50 (SB590885): > 5 µM

NUGC-4 (stomach, adherent)
AUC (PD-173074): 0.988 | IC50 (PD-173074): > 2000 nM | AUC (SB590885): 0.969 | IC50 (SB590885): > 5 µM

NY (osteosarcoma, adherent)
AUC (PD-173074): 0.925 | IC50 (PD-173074): > 2000 nM | AUC (SB590885): 0.97 | IC50 (SB590885): > 5 µM

OACM5-1 (oesophagus, semi-adherent)
AUC (PD-173074): 0.986 | IC50 (PD-173074): > 2000 nM | AUC (SB590885): 0.985 | IC50 (SB590885): > 5 µM

OACp4C (oesophagus, adherent)
AUC (PD-173074): 0.979 | IC50 (PD-173074): > 2000 nM | AUC (SB590885): 0.972 | IC50 (SB590885): > 5 µM

OAW-28 (ovary, adherent)
AUC (PD-173074): 0.977 | IC50 (PD-173074): > 2000 nM | AUC (SB590885): 0.948 | IC50 (SB590885): > 5 µM

OAW-42 (ovary, adherent)
AUC (PD-173074): 0.939 | IC50 (PD-173074): > 2000 nM | AUC (SB590885): 0.981 | IC50 (SB590885): > 5 µM

OC-314 (ovary, adherent)
AUC (PD-173074): 0.991 | IC50 (PD-173074): > 2000 nM | AUC (SB590885): 0.991 | IC50 (SB590885): > 5 µM

OCI-LY7 (B-cell lymphoma, suspension)
AUC (PD-173074): 0.969 | IC50 (PD-173074): > 2000 nM | AUC (SB590885): 0.994 | IC50 (SB590885): > 5 µM

OCUM-1 (stomach, adherent)
AUC (PD-173074): 0.987 | IC50 (PD-173074): > 2000 nM | AUC (SB590885): 0.986 | IC50 (SB590885): > 5 µM

OE19 (oesophagus, adherent)
AUC (PD-173074): 0.974 | IC50 (PD-173074): > 2000 nM | AUC (SB590885): 0.916 | IC50 (SB590885): > 5 µM

OE21 (oesophagus, adherent)
AUC (PD-173074): 0.974 | IC50 (PD-173074): > 2000 nM | AUC (SB590885): 0.953 | IC50 (SB590885): > 5 µM

OE33 (oesophagus, adherent)
AUC (PD-173074): 0.983 | IC50 (PD-173074): > 2000 nM | AUC (SB590885): 0.984 | IC50 (SB590885): > 5 µM

OSC-19 (head and neck, adherent)
AUC (PD-173074): 0.987 | IC50 (PD-173074): > 2000 nM | AUC (SB590885): 0.986 | IC50 (SB590885): > 5 µM

OSC-20 (head and neck, adherent)
AUC (PD-173074): 0.976 | IC50 (PD-173074): > 2000 nM | AUC (SB590885): 0.982 | IC50 (SB590885): > 5 µM

OV-7 (ovary, adherent)
AUC (PD-173074): 0.916 | IC50 (PD-173074): > 2000 nM | AUC (SB590885): 0.846 | IC50 (SB590885): > 5 µM

OV-17R (ovary, adherent)
AUC (PD-173074): 0.961 | IC50 (PD-173074): > 2000 nM | AUC (SB590885): 0.981 | IC50 (SB590885): > 5 µM

OV-56 (ovary, adherent)
AUC (PD-173074): 0.976 | IC50 (PD-173074): > 2000 nM | AUC (SB590885): 0.986 | IC50 (SB590885): > 5 µM

Lines with a small IC50 respond at low doses; a limit (>, <) means that the fit lies beyond the doses tested. The AUC spans the tested range (256-fold, ending at the top dose) of the same fit: 1 means no effect, lower means more sensitive. A top dose marked as inferred comes from the curve model; the source does not state it.
